The campaign covered roughly 310,000 compounds. About 2,200 (0.71%) showed an effect of 50% or more. The effect is printed as a negative number. The list shows a part of the results.
target: human ether-à-go-go-related gene (hERG) potassium channel (human, UniProt Q12809); test: primary screen, population patch clamp on CHO cells stably expressing hERG
Sequence (Q12809 whole entry, looked up): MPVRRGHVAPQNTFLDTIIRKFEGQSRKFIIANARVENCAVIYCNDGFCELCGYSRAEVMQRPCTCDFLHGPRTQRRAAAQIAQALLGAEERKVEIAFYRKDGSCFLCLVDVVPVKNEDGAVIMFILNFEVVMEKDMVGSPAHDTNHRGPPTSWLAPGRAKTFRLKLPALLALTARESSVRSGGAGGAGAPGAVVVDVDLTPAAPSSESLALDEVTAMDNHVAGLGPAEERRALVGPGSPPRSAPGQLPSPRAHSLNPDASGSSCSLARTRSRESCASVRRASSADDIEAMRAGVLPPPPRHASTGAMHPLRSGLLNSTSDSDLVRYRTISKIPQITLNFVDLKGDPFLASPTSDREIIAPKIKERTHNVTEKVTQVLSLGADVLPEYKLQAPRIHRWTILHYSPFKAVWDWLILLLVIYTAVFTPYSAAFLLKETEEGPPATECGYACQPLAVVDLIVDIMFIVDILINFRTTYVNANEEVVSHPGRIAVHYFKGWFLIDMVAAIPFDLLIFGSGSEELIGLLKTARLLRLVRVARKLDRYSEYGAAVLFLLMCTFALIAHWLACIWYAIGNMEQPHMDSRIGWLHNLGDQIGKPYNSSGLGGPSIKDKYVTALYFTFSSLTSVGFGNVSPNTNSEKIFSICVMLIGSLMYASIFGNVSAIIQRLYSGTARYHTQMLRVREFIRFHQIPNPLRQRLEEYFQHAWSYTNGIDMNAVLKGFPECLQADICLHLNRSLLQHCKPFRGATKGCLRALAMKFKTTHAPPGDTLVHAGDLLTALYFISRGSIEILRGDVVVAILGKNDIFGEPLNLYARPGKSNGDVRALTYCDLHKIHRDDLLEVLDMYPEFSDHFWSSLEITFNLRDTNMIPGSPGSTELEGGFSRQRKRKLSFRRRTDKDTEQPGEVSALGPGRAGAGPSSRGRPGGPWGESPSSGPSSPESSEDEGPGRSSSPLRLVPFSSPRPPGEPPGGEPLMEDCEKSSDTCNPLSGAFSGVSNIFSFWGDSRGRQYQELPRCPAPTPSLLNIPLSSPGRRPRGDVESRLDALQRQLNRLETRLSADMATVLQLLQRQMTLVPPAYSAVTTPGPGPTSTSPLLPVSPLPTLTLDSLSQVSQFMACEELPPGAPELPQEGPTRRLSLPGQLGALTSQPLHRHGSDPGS

Structure (SMILES) | hERG current change (%, negative = inhibition) at 1uM
COc1cc2c(cc1OC)C(c1ccc(C)cc1)NC(=O)C2 (stereo not shown) | 17.6%
Cc1nn(-c2ccc(F)cc2)c(Cl)c1/C=N/NC(=O)c1cccs1 | 15.3%
CC1(C)c2ccccc2N(CC(N)=O)C12C=Cc1ccccc1O2 (stereo not shown) | 11.7%
CC(C)c1ccc2[nH]c3c(c2c1)CCC/C3=N\NC(=O)c1ccncc1 | 9.68%
CN1CCN(C2=C(NS(=O)(=O)c3cccs3)C(=O)c3ccccc3C2=O)CC1 | 9.07%
COc1cc([N+](=O)[O-])cc([N+](=O)[O-])c1NC(=O)N1CCOCC1 | 10%
O=C(Cn1cc([N+](=O)[O-])cn1)N1N=C(C(F)F)CC1(O)C(F)F (stereo not shown) | 0.595%
CC1(C)Cc2c(c(N3CCOCC3)nc3sc4c(NN)ncnc4c23)CS1 | -6.64%
c1ccc(Sc2ncccn2)nc1 | 13.2%
CCCCn1c(N)c(N(CCC(C)C)C(=O)CCCc2nc3ccccc3s2)c(=O)[nH]c1=O | 10.2%
COc1cc2[nH]c(=O)n(CCCCCC(=O)N3CCN(c4ccccn4)CC3)c(=O)c2cc1OC | 15%
COc1cc(NC(=O)NC2Cc3ccccc3C2)cc(OC)c1 | 7.68%
Cc1ccc(C(=O)N/C(=C\c2cccs2)C(=O)NCCc2c[nH]c3ccccc23)cc1 | 6.41%
COCCOC(=O)C1=C(N)OC2=C(C(=O)CCC2)C1c1cccnc1 (stereo not shown) | 2.79%
COC(=O)Cn1c(N)[n+](Cc2ccccc2)c2ccccc21.[Br-] | 2.27%
CC(/C=C/c1ccco1)=N\NC(=O)c1cc(Cl)ccc1O | 18.3%
COc1ccc(-c2cc(C(F)(F)F)nc(-n3ccnc3C)n2)cc1 | 6.23%
Nc1nc(Nc2cccc(C(F)(F)F)c2)nc(C(F)(F)F)n1 | 5.02%
Oc1[nH]c2ccccc2c1C1=NCCCCC1 | 3.28%
O=[N+]([O-])c1cccc(/C=N/Nc2nc(N3CCCCC3)nc(N3CCCCC3)n2)c1 | 4.19%
CCCOc1c(Br)cc(/C=N/O)cc1OC | 15.2%
CCN(CC)S(=O)(=O)c1c(OC)cc(C)c(Cl)c1C | 4.24%

Structure (SMILES) | hERG current change (%, negative = inhibition) at 1uM
CCN1CCN(/C=N/c2nc(C)cs2)CC1 | 7.85%
COc1ccc(-c2csc(NC(=S)NC(=O)c3cc4ccccc4o3)n2)cc1Br | 13%
CCOc1ccc2[nH]c(=O)c(CN(Cc3ccc(F)cc3)C(=O)N3CCCC3)cc2c1 | 9.7%
CC(=O)c1ccc(NC(=O)Nc2ccc3c(c2)N(C)C(=O)CS3)cc1 | 12.4%
C/C(=N\NC(=O)CSc1nc(C)cc(C)n1)c1cccs1 | 9.08%
CCN1CCN(C(C)C(=O)NC2CCCCC2)CC1.O=C(O)C(=O)O (stereo not shown) | 8.27%
O=C(CCN1C(=O)c2ccccc2C1=O)N1CCN(C(=O)c2ccccc2)CC1 | 7.73%
COc1ccc2c(c1)C1NC(=S)NC(C)(O2)C1C(=O)Nc1ccc(C)cc1C (stereo not shown) | 3.98%
O=[N+]([O-])/C(C(Cl)=C(Cl)Cl)=C(\Sc1ccccc1)N1CCCCC1 | -3.16%
CN(C)/C=N/c1[nH]ncc1C#N | 9.35%
CC[C@@H]1C(=O)OC[C@@H]1CC1=CN=C[NH+]1C.O=[N+]([O-])[O-] | 19.5%
COc1ccc(OCC(=O)Nc2ccc(N3CCN(C(=O)c4ccccc4C)CC3)cc2)cc1 | 6.68%
CCCCCCC(=O)N(O)C1CC(=O)N(c2ccc(F)cc2)C1=O (stereo not shown) | 16.4%
CN(C)CCN(C(=O)C1=COCCO1)c1nc2ccc(F)cc2s1.Cl | -57.7%
COc1cccc(CN(C)C(=O)CSC(C)C(=O)Nc2cc(C)on2)c1OC (stereo not shown) | 14%
CN1CCN(c2ccccc2NC(=O)c2ccc(OCc3ccccc3)cc2)CC1 | 5.14%
CC(C)NC(=O)C1CCN(C2CCN(C(=O)C3=CCCC3)CC2)CC1 | 1.67%
Cc1cccn2cc(-c3ccc(F)cc3)cc12 | 14.2%
COc1ccc(C(=O)NCC(=O)Nc2ccc(-c3ccccc3)cc2)cc1 | 15.7%
CCN(CC(=O)Nc1c(F)cccc1F)C(=O)CN(C)S(=O)(=O)c1ccc(F)cc1 | 6.9%
COc1ccc(-n2nnnc2SCC(=O)NC(=O)Nc2ccc3c(c2)OCCO3)cc1 | 6.13%
CN(C)c1cc(N)c2c(n1)CCC2.O=C(O)c1cncc(O)c1 | -2.61%

Structure (SMILES) | hERG current change (%, negative = inhibition) at 1uM
COc1cccc(C(=O)Nc2nnc(SCC(=O)Nc3ccc(NC(C)=O)cc3)s2)c1 | -25.3%
O=C(N/N=C/C1CC=CCC1)c1ccccc1O (stereo not shown) | 13.3%
CCC(Oc1ccccc1)C(=O)Nc1ccsc1C(=O)OC (stereo not shown) | 8.03%
Cc1ccc(C(=O)OCC(=O)Nc2cc(C(C)(C)C)nn2-c2ccccc2)c(O)c1 | -2.37%
CN(Cc1c(C(=O)N/N=C/c2cccc(O)c2)nnn1-c1nonc1N)C1CCCCC1 | 3.72%
Cc1nnc2n1NC(c1ccc(Cl)cc1)C(C(=O)N1CCC(C)CC1)S2 (stereo not shown) | 12.1%
Cc1occc1-c1nnc(SCC(=O)NC2CC2)n1C | -1.36%
CC(C)CCN(C(=O)CNC(=O)c1cccs1)C(C(=O)NC1CCCCC1)c1cccnc1 (stereo not shown) | -1.18%
COC(=O)C(NC(=O)c1ccccc1)=C1CCCCC1 | 14.6%
COCc1ccc(CN2CCCC(C(=O)Nc3ccccc3-c3ccc(OC)cc3)C2)o1 (stereo not shown) | -3.55%
C=CCn1c(O)c(N=NC(=O)CNC(=O)c2ccco2)c2ccccc21 | 4.43%
O=C(O)CC12CC3CC(C1)CC(n1ncc(NCC4CCCO4)c(Cl)c1=O)(C3)C2 (stereo not shown) | 7.31%
O=C1CCC(C(=O)OCc2ccccc2)N1 (stereo not shown) | 15.3%
COc1ccc(NC(=O)CNC(=O)Cn2cnc3sc(C)c(C)c3c2=O)cc1OC | 8.41%
CCOC(=O)c1ccc(N2C(=O)C(O)=C(C(C)=O)C2c2ccccc2)cc1 (stereo not shown) | 13%
CCCCC(CCCCl)C(=O)Nc1ccccc1 (stereo not shown) | 8.59%
O=C(CN1CCN(c2ccccc2O)CC1)NNC(=O)c1ccc(Cl)cc1 | 6.3%
O=C1COc2ccc(C(=O)COC(=O)CCc3ccc(S(=O)(=O)N4CCOCC4)cc3)cc2N1 | 3.18%
CCCCC(=O)Nc1nnc(/C=C/c2ccc(OC)cc2)s1 | 12.4%
Cc1ccc(S(=O)(=O)N(C)c2ccc(C(=O)N(CC(C)C)C3CCS(=O)(=O)C3)cc2)cc1 (stereo not shown) | 0.973%
COc1ccc([N+](=O)[O-])cc1N(CC(O)CN(C)C)S(=O)(=O)c1ccccc1 (stereo not shown) | 8.5%
O=C(N/N=C/c1ccccn1)c1cc(C2CC2)[nH]n1 | 12.7%

Structure (SMILES) | hERG current change (%, negative = inhibition) at 1uM
CC(C)c1ccc(CCNC(=O)CSC(=S)N2CCCC2)cc1 | 20.7%
COCCNc1ccc(N2C(=O)C3CCCCC3C2=O)cc1[N+](=O)[O-] (stereo not shown) | 3.48%
CC1CCCCC12NC(=O)N(CC(=O)N1CCN(c3ncccn3)CC1)C2=O (stereo not shown) | -0.565%
Cc1ccc(N(CC(=O)NC(C)C)C(=O)CCC(=O)Nc2nccs2)cc1C | 2.49%
O=C(NCc1ccccc1Cl)c1ccc2c(=O)n(CC3CCCO3)c(=S)[nH]c2c1 (stereo not shown) | 13.5%
CN(CCOc1ccc(-c2ccn(S(=O)(=O)c3c(Cl)cccc3Cl)n2)cc1)c1ccccn1 | 11.3%
Cc1cc(C)cc(N(C(=O)c2csnn2)C(C(=O)NC(C)(C)C)c2cccnc2)c1 (stereo not shown) | -1.11%
CC(=O)c1c(N2CCN(c3ccc(F)cc3)CC2)nc(=S)n(Cc2ccccc2)c1C | 4.06%
CCCCn1nnc(NC(=O)CCC)n1 | 2.38%
O=C(CCc1nc2ccccc2c(=O)[nH]1)NCC(=O)Nc1ccc(F)c(F)c1 | 10.3%
COc1cc(/C=C2/SC(=O)N(Cc3ccccc3Cl)C2=O)ccc1OCc1ccncc1 | 7.6%
COc1ccc(CC/C(=N\O)C2(O)CCCCC2)cc1 | 11.5%
CCN(CC(=O)Nc1ccccc1OC)C(=O)c1ccc(NS(=O)(=O)c2ccc(C(C)=O)cc2)cc1 | 3.33%
O=C(C[n+]1ccccc1)N/N=C/c1ccccc1C(F)(F)F.[Cl-] | 12.8%
O=C(Cn1cnc2c(cnn2-c2ccccc2)c1=O)c1ccc(Cl)cc1 | 11.9%
CC1(C)CC(=O)C2(CC3=C(CC(C)(C)CC3=O)O2)C(=O)C1 | -12.4%
O=C(CNC(=O)c1ccc(Cl)cc1Cl)OCC(=O)N1CCCC1 | 3.95%
COc1ccc(CCNC(=O)CCn2cccc2)cc1OC | 11.1%
CCOc1ccccc1-n1c(SCC(N)=O)nnc1-c1ccc(O)cc1 | -0.141%
Cc1ccc(SCCNC(=O)c2cccc([N+](=O)[O-])c2C)cc1 | 8.61%
O=C(Nn1cnc2ccccc2c1=O)c1ccccc1F | -1.5%
COc1ccc(OC)c(S(=O)(=O)N2CCCC2C(=O)N2CCc3ccccc3C2)c1 (stereo not shown) | -6.88%

— publication PMC4336329 (PLoS ONE, 2015)
